The text below walks through data of ChEMBL document CHEMBL4888484, “Replenishing the malaria drug discovery pipeline: Screening and hit evaluation of the MMV Hit Generation Library 1 (HGL1) against asexual blood stage Plasmodium falciparum ,using a nano luciferase reporter read-out” (2022).

Usually % Inhibition stands for the relative decrease from the control value, in per cent.

About 540 (0.36%) of roughly 150,000 compounds showed an effect of 50% or more. The list shows a part of the results.

This experiment relates to Plasmodium falciparum. Description: Primary screen in NF54 nanoGlo assay, in single point, at 2uM, 72h; a lower Z score goes with more inhibition. It counts as functional, Erythrocyte. To be noted: timepoint 72 hour.
Consider `CC(=O)c1c(F)cccc1NCCNC(=O)c1ccc(O)cc1`, for which the “% Inhibition” value was found to be 33% and the Z score is -3.71.
The corresponding values for `OC[C@H]1CN(c2nc3ccccc3o2)C[C@H]1CN1CCCCC1` are -5% and 0.72.
For `Cc1noc(CNC(=NCc2ccccc2)NC2CCCC2)n1` the same measures were -7% and 0.92.
On to `CC(=O)Nc1cccc(CN2C[C@H]3CCS(=O)(=O)[C@H]3C2)c1`, for which the “% Inhibition” value is recorded as -4% and the Z score is recorded as 0.77.
On to `O=C(CC1CC2CCC1C2)Nc1cn[nH]c1` (stereo not drawn), for which the “% Inhibition” value is on record as -16% and the Z score was 1.43.
With `CCNC(=O)NC(=O)[C@H](C)Nc1cnn(C(C)(C)C)c1`, the “% Inhibition” value turned out to be 6% and the Z score is on record as -0.75.
Take `Cc1nc(CC2CC2)sc1C(=O)N(C)c1c(C)noc1C`: the “% Inhibition” value was -6% and the Z score is 0.7.
In the case of `CN(C(=O)Cc1cc(Br)ccc1F)c1cccnc1`, the “% Inhibition” value worked out at 10% and the Z score is on record as -0.88.
The corresponding values for `CCc1nnc(CNC(=O)[C@]2(O)CCc3cc(Br)ccc3C2)o1` are 4% and -0.58.
For `C=CCC[C@@H](CN(C)Cc1cccnc1)Oc1ccc(C)nn1`, the “% Inhibition” value was -2% and the Z score was 0.31.
For the compound `CCOc1ccc(C(=O)Nc2ccc(C)c(-c3nnnn3C3CC3)c2)cn1`, the “% Inhibition” value is 12% and the Z score is given as -1.32.
Take `CC(C)(C)C(=O)NCCc1cscn1`: the “% Inhibition” value was 9% and the Z score is -1.18.
For `CCOc1ccc(C2=NNC(c3ccc(C)cc3)=Nc3ccccc32)cc1OCC` the same measures were -11% and 1.26.
The corresponding values for `O=C(CN1CCn2nc(C(F)(F)F)cc2C1)NCc1cccs1` are -3% and 0.43.
The corresponding values for `COc1ncccc1NC(=O)c1ccoc1C` are 3% and -0.43.
Turning to `Cn1nccc1/C=C1\CC2C3CCc4cc(O)ccc4C3CCC2(C)C1O` (stereo not drawn), the “% Inhibition” value is 54% and the Z score is -6.08.
The corresponding values for `FC(F)COc1cc(CNC2C3CCOC3C23CCC3)ccn1` (stereo not drawn) are 3% and -0.29.
For `CC(=O)c1cnc(NCc2ccc3c(c2)OCO3)nc1C` the same measures were -1% and 0.13.
Turning to `Cc1ccc2c(n1)OCCN2S(=O)(=O)c1ccnn1C`, the “% Inhibition” value is -2% and the Z score turned out to be 0.25.
In the case of `COC(=O)[C@@H]1C[C@@H](N(C)C)CN1C(=O)CC(=O)Nc1ccc(C)cc1`, the “% Inhibition” value was -9% and the Z score amounted to 1.74.
On to `Cc1cc(NC(=O)c2cc(O)nc3ccccc23)n(C)n1`, for which the “% Inhibition” value was determined as 0% and the Z score worked out at 0.04.
For `Cn1ccc2c(-c3cccc(O)n3)ccnc21`, the “% Inhibition” value is on record as -19% and the Z score worked out at 1.7.
Take `CC1CCN(C(=O)c2ccc(-c3ccccc3)[nH]2)C(CN)C1` (stereo not drawn): the “% Inhibition” value amounted to 7% and the Z score is on record as -0.8.
Take `CCS(=O)(=O)C1CCN(Cc2cccc(OC)c2Cl)CC1`: the “% Inhibition” value was determined as 3% and the Z score is -0.26.
The corresponding values for `COc1cn(C)nc1[C@H](C)Nc1ncc(C#N)cc1Cl` are -14% and 1.6.
Turning to `CC(C)Cc1nc([C@@H]2CCCCCN2)no1`, the “% Inhibition” value was -11% and the Z score is 1.39.
The corresponding values for `Cc1cc2[nH]c(=O)c(C(=O)N(C)Cc3ccccc3)cn2n1` are -46% and 5.45.
The corresponding values for `Cc1cc(C)c2c(CC(=O)N[C@H]3CCOC3)coc2c1C` are -3% and 0.53.
For `CCc1cc(NC(=O)Cc2c(C)nn(C)c2C)nc(C)n1` the same measures were 6% and -1.2.
On to `CCN1CCN(C(=O)C[C@H](CCc2ccccc2)c2c[nH]c3ccc(OC)cc23)CC1`, for which the “% Inhibition” value is reported as -4% and the Z score was 0.55.
The corresponding values for `CC(C)n1cc2cc(C(=O)NCCc3ccccn3)sc2c1` are -8% and 0.98.
For `CC(=O)N1CCc2sc(S(N)(=O)=O)cc2C1` the same measures were -11% and 1.57.
The corresponding values for `Cc1cscc1NC(=O)N1C2CCC1COC2` are 7% and -1.05.
Regarding `CCc1nn(C)c(NC(=O)C[C@H]2C(=O)NCCN2CC)c1CC`, the “% Inhibition” value worked out at 8% and the Z score is recorded as -0.76.
Regarding `COC1CN(C(=O)C(C)C(=O)OC(C)(C)C)CCC1C` (stereo not drawn), the “% Inhibition” value came out at 8% and the Z score is on record as -1.55.
For `Cc1cccc(NC2CCN(C3Cc4ccccc4C3O)CC2)n1` (stereo not drawn) the same measures were -2% and 0.24.
The corresponding values for `O=S(=O)(c1ccc(Cl)cc1Cl)N(CCO)CCO` are -5% and 0.97.
For the compound `O=C(Nc1cnns1)N[C@H]1CCCN(Cc2ccccc2)C1`, the “% Inhibition” value is -5% and the Z score is on record as 0.68.
Turning to `CC(C)n1nccc1NC(=O)c1cc(-c2ccccc2)nc2ccccc12`, the “% Inhibition” value is -13% and the Z score is 2.62.
For `CCOC(=O)N1CCC(N2C(=O)[C@@H]3CCCN3C2=O)CC1` the same measures were -13% and 1.69.
The corresponding values for `O=c1cc(CN2CCN(c3ccccc3)CC2)nc(-c2cccnc2)[nH]1` are -3% and 0.48.
The corresponding values for `CC(C)(NCc1cccc2c1OCO2)c1ccc(Cl)c(Cl)c1` are -1% and 0.13.
As to `CCN(Cc1nnc(-c2ccccc2)o1)S(=O)(=O)c1cn(C(F)F)nc1C`, the “% Inhibition” value was found to be 3% and the Z score is -0.47.
Regarding `FC(F)(F)C1CC(NCc2ccc3c(c2)OCCO3)C1` (stereo not drawn), the “% Inhibition” value came out at 3% and the Z score is listed as -0.37.
For `CCc1noc(CN(CC)c2cc([C@H]3CCOC3)nc(N3CC(O)C3)n2)n1` the same measures were 9% and -1.24.
The corresponding values for `Cc1cnc(CN(C)Cc2cccnc2)cn1` are -4% and 0.77.
In the case of `Cc1ccc(NC(=O)Cn2c(C)cc(C)c(-c3nc(-c4ccc(F)cc4)no3)c2=O)c(C)c1`, the “% Inhibition” value is -6% and the Z score is 1.13.
The corresponding values for `Cc1ccc(S(=O)(=O)NCCn2c3ccccc3c3c(C)cc(C)nc32)cc1` are -5% and 0.73.
For `O=C(Cc1cccnc1)NC1CCN(c2cnsn2)CC1` the same measures were -11% and 1.47.
The corresponding values for `CC[C@H](C)N(Cc1cc2ccc(F)cc2[nH]c1=O)C1CCCC1` are -12% and 2.18.
Take `O=C(CCCc1ccccc1)Nc1n[nH]c([C@@H]2CCCO2)n1`: the “% Inhibition” value is given as -10% and the Z score is 1.53.
With `CCn1c(C)cc(=O)c2cc(C(=O)Nc3ccc(OC)cc3)ccc21`, the “% Inhibition” value is on record as -5% and the Z score worked out at 0.54.
For `CC(C)COc1ccc(S(=O)(=O)Nc2cnn(C)c(=O)c2)cc1` the same measures were 1% and -0.14.
The corresponding values for `C[C@@H]1[C@@H](c2cccc(Cl)c2)OCCN1C(=O)c1cccc(CC(=O)O)c1` are 2% and -0.25.
The corresponding values for `CCc1nn(C)c(Cl)c1CN1CCN(c2ccc3nccn3n2)CC1` are -7% and 1.34.
On to `CC1(C)[C@@H]2CC[C@]13CS(=O)(=O)N(C(=O)c1ccco1)[C@@H]3C2`, for which the “% Inhibition” value is given as -6% and the Z score is given as 0.84.
Turning to `C#CCN1CCN(CN2C(=O)NC3(Cc4ccccc4C3)C2=O)CC1`, the “% Inhibition” value is -25% and the Z score came to 2.92.
Turning to `COc1ccc(CCC(=O)N2CC[C@H](N(CCN3CCCCC3)C(=O)N(C)C)C2)cc1`, the “% Inhibition” value is on record as -3% and the Z score was 0.35.
For `COCCN(Cc1ccncc1)S(=O)(=O)N1CCCCC1` the same measures were 2% and -0.46.
In the case of `Cc1ccc([C@H]2CN(C(=O)c3ccccc3-c3nc[nH]n3)C[C@@H]2N(C)C)cc1`, the “% Inhibition” value is -11% and the Z score is on record as 1.17.
For `CC(C)COC(=O)Nc1cccc(NCc2nnc(C3CC3)n2C)c1` the same measures were -18% and 1.62.
For `C/C(=C\c1ccccc1)c1nc2cccc(C)n2c1Nc1c(C)cccc1C` the same measures were -10% and 1.09.
For `Cc1ccc(-c2nc3ccccn3c2Nc2ccc3c(c2)OCCO3)s1` the same measures were -13% and 2.09.
With `CC(C)n1cc(C(=O)N2CCc3ncccc3C2)cn1`, the “% Inhibition” value was -10% and the Z score came to 1.05.
The corresponding values for `O=S1(=O)CCCN(CC2(O)CCC2)CC1` are -10% and 1.47.
The corresponding values for `Cc1ccncc1-c1cccc(-c2cc[nH]n2)c1` are -1% and 0.1.
With `CN(Cc1ccc(C#N)o1)[C@@H](C(N)=O)c1cccc(Br)c1`, the “% Inhibition” value was -9% and the Z score is recorded as 0.79.
The corresponding values for `NC(=O)c1ccc(NC(=O)N2CCCC2CC(O)c2ccco2)cc1Cl` (stereo not drawn) are -10% and 1.17.
For `CCc1c(C(=O)NCCc2cccnc2C)cnn1C1CCCC1` the same measures were 6% and -0.77.
`Cc1ccc(-n2ncc3c(N4CCc5ccccc5C4)ncnc32)cc1`: the “% Inhibition” value is -2% and the Z score came to 0.3.
For `CCCOc1ccc(CN2C(=O)N[C@@](C)(CCC)C2=O)cn1` the same measures were -10% and 0.91.
For `Cc1nonc1CN(C)C(=O)c1c(CC2CCCC2)n(CCN(C)C)c(C)cc1=O` the same measures were -4% and 0.52.
For `OCc1cccc(NCc2ncccc2C(F)(F)F)c1` the same measures were -5% and 0.61.
`COn1c(-c2ccc(C)cc2)c(Cl)c2cc(C#N)c(C#N)cc21`: the “% Inhibition” value is -12% and the Z score came to 1.4.
For `CCC(CC)(CNC(=O)C(C)(C)Cc1cnn[nH]1)OC` the same measures were 4% and -0.7.
For the compound `O=C(NCCN1CCNC1=O)Nc1ccnn1C1CCCCC1`, the “% Inhibition” value is -3% and the Z score worked out at 0.64.
For `CNC(=O)c1cccc(CCNCc2cnc(C)n2-c2ccccc2)c1` the same measures were -2% and 0.26.
Take `CN(C)CCN(C(=O)Nc1ccc(C(C)(C)C)cc1)C1CCOCC1`: the “% Inhibition” value amounted to 3% and the Z score was -0.58.
`Cc1c(Cl)cccc1NC(=O)N1CCCn2nc(-c3cccn3C)cc21`: the “% Inhibition” value is -14% and the Z score is listed as 1.8.
The corresponding values for `CC[C@@](C)(COc1ncccc1Cl)NC(=O)Nc1ccc(OC)cc1C` are 10% and -1.16.
The corresponding values for `COCCN(Cc1ccoc1)S(C)(=O)=O` are -12% and 1.54.
For `NC(=O)Nc1ccc(NC(=O)c2cc3c(s2)CCCCC3)cc1` the same measures were -2% and 0.3.
For the compound `CC(C)/C=C/CN(C)CC1(CO)CCOCC1`, the “% Inhibition” value is -7% and the Z score came out at 1.17.
In the case of `CC(C)(C)NC(=O)CCC1CCCCC1`, the “% Inhibition” value is -21% and the Z score came to 3.34.
`CCC1Oc2cc(C(C)NC(=O)N3CC=C(C)CC3)ccc2NC1=O` (stereo not drawn): the “% Inhibition” value is on record as -10% and the Z score stood at 1.28.
As to `O=C(NCCc1noc2ccccc12)NC1COC(C2CC2)C1` (stereo not drawn), the “% Inhibition” value is given as -11% and the Z score was 1.76.
The corresponding values for `Cc1ccc(CCCNS(C)(=O)=O)cc1` are -19% and 1.77.
For `COc1ccc2c(c1)CCc1c-2n[nH]c1-c1ccc(C(=O)NCCCN2CCCC[C@@H]2C)cc1` the same measures were -1% and 0.21.
The corresponding values for `CCN(C[C@H]1CCN(C(=O)c2cc[nH]n2)C1)CC(F)(F)F` are -8% and 1.23.
